# Assay results from the RNAGym collection of RNA variant scans (doi:10.7554/elife.90254).
# The source gives no read counts; variants with many changes may rest on few reads.
# B1: LINE1-mini (parent)
# chain: GGCAGAGCUCAACACAGCGUGGCAAAGUGGCUGUGGCUAGACUGCC
# Variants of: B1
# Assay: self-cleavage, relative activity (ratio to wild type); higher = more cleavage; in vitro, sequencing; the parent is a self-cleaving ribozyme
row,Variant,self-cleavage
1,AGCAGAGCUCCACACAGCGUGGCAAAGUGGCUGUGGCACGACUGCC,0
2,AGCGGAGCUCAACCCAGCCUGGCAAAGUGGCUGUGGCUAGACUGCU,0.05
3,AGCAGAGCUCAACACAGCGUGGCAGAGGGGCUGUAGCUAGACUGCC,0.09
4,AGCAGAGCUCGACACAGCGUGGCAAAGUGGAUGUGGAUACAAUGCC,0
5,AGCAGGGCUCAACACAGCGCGGCAAAGUGGCUGUGGCUAGACUGCC,0.13
6,AGCGGAGCUCAACACUGCGUGGCAAAGUGGCUGUGGCUAGACUACC,0.03
7,AGAAGAGCUCAAUACAGCGUGGCAAAGUGGCUGUGGCCACAAUGCG,0.28
8,AGCCGAGCACAACACAGCGUGGCAAAAUUGCUGUGGCUAGACUGCC,0.26
9,AGAAGAGCUCAACACAGCGUAGCAAAGUGGCUGUGGCAAGGCUGCC,0.56
10,AGCAGAGCUCAACACGGCGUGGCAAAGUGGGUGUGGAUAGACUGCC,0.01
11,AGCAGAGCUCAACACAGCGUGGCAAGGUGGCUGUGGCUAGAGAGUC,0.01
12,AGCUGCCCUCAACACAGCGUGGCCAACUGGCUGUGGCUAGACUGCC,0.18
13,AGCAGAGCUCAACUCAGCGUGGCAAAGUGGCUGUGGUUAGACUGCU,0.02
14,AGCAGAGCUCACCACAGCGUGGCAAAGUGCCUGAGGCUAGACUGCC,0.06
15,AGCUGAGCUCAACAUAGCGUCGCAAAGUGGCUGUGGCUAGAUUACC,0.09
16,AGCAGAGCUCAACACAGCGUGGCUAAGUGACUGUUGCUAGACUGCC,0.03
17,AGCAGGGCUCAACACAGCGUGGCAAAGUCGCUGUGGCUAGACUGCC,0.06
18,AGCAGAGCUCAACACCGCGUAGCAAAGUGUCUGUGGCUAGACUGCC,0.07
19,AGCAGAGCUCGACACAACCUGGCAAAGUGGCUGUGGCUAGACUGCC,0.04
20,AGCAGAGCUCACCACAGCGUGGCAAAGUGGCUGUGGCUAGCCUGCC,0.04
21,AGGAGCGCUCAAAACAGCGUGGCAAAGUGGCUAUGGCUAGACUGCC,0.19
22,AGCAGAGCUCGACACAGCGUGGCAAAUUGGCUGUGGCUAGACUGCC,0.05

row,Variant,self-cleavage
1,AGCAGUGCUCAACACAGCGUGGCAAAGUGACUGUGGCUAGACCGCC,0.13
2,AGCUGAGCUCAACACAGCGUAGCAAAGUGGCUGCGGUUAGACUGCC,0.14
3,AGCAGAGCUCACCUCAGCGUGGCAAAGUGGCUGUGGCUAGACUGCC,0.01
4,AGCCGAGCUCAACACAGCGUGGCAAAGUGGCUGUGGCUAGACUGGC,0.1
5,AGCAGAGCUCAACCCAGCUUGGCAAAGUGGCUGUGGCUAGACCGCC,0.04
6,AGCAGGGCUCAACACACCGGGGCAAAGCGGCAGUGGCUAGACUGCC,0.04
7,AGCAGGGCUCAACACAGCGUGGCAAAGUGGUUGUGGCGAGACUGCC,0.01
8,AGGAGAGCUCAACACAGCGUGGCAAAGUGUCUGUGGCUAGACUGCC,0.62
9,AGCAGAGCUCAACACGGCGUGGCAAAGAGGCUGUGGCUAGACUGCC,0.04
10,AGCAGAGCUCAACACAGCGUGGCAAUGUGGUUGUGGCAAGACUGGC,0.13
11,AGCAGUGCUCAAGACAGCAUGGCAAUGUGGGUGUAGCUAGACUGCC,0.05
12,AGCAGAGCUCUACACAGCGUGGCAAAGUGGCUAUGGCUAGACUGCU,0.06
13,AGUAGAGCUCAACUCAGCGUGGCAAAGUGGCUGUGGCUAGACUGCC,0.54
14,AGCAGAGCUCAACACAGCGUGGCAGAGUGGCGGUGGCUCGACUGGC,0.08
15,AGCAGAGCUCCACACAGUGUGGCAAAGUGGCUGUGGCUAGAUUGCC,0.02
16,AGCGGAGCUCAACACAGCGUGGCACGGUGGCUGUGGCUAGACUGCC,0.06
17,AGCAGAGCUCAACACAGCGUGGCAAUGUGGUUGUAGCUACACUGCC,0.08
18,AGCCGAGCUCAACACAGCGUCGCAAAGUGGCUGUGGCUAGACUGCC,0.02
19,AGCUGCGCUCAUCACAGCGUGGCAAAGUGCCUGUGGCUAGACUGCC,0.08
20,AGCAGAGCUCAACUCAGCGUGGCAAAGUGCCUGUGGCUAGACUGCC,0.06
21,AGCAGUGCUCAACACAGCGUGGCAAAGUGGGUGUGGCUAGAUUGUC,0.08
22,AGCAGAGCUCUACACAGCGUGGCAAAGUGGCUGUCGCUAGACUGCC,0.02
